# Measurements from PubChem BioAssay AID686979 (National Center for Advancing Translational Sciences (NCATS), 2013).
# About 50,000 (12%) of roughly 420,000 compounds were called active. Inconclusive means that the source gave no clear call. Such entries were picked first, then a sample of the others. Calls follow the shape of the dose curve; as a rule, active = well fitted inhibition curve with a large enough effect; inconclusive = small, poorly fitted or top-dose-only effect; inactive = flat fitted curve, though single readings scatter. No potency is given beside an inconclusive call; the fits are too rough.
# Test: qHTS for Inhibitors of human tyrosyl-DNA phosphodiesterase 1 (TDP1): qHTS in cells in presence of CPT; also: nearly all actives have a fitted effect of over 55% in size
# Details: chicken DT40 Tdp1-/-;hTDP1 cells + 20 nM CPT, ATP luminescence, 48 h; activity change, negative = growth inhibition: at 46.2 µM (top of the series)
# Procedure, shortened: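 Cell growth measured by CellTiter-Glo luminescence after a minimum 48 h, 37 C compound exposure with 20 nM CPT in Tdp1-knockout DT40 cells stably expressing hTDP1, seeded 400/well; qHTS titration format.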
# % is scaled to controls: 0 for no effect and ±100 for the full control effect; potency is read from the fitted curve at half-maximal effect; tags tell the direction and shape of the fitted curve.
Structure (SMILES),Potency,"activity change, negative = growth inhibition"
O=S(=O)(NCCC1=CCCCC1)c1cccc(S(=O)(=O)N2CCOCC2)c1,active: 5.17 µM,
O=C(/C=C/c1ccccc1)Oc1coc(CSc2ncccn2)cc1=O,,inactive: -1.71%
Cc1ccc(S(=O)(=O)N2CCN(C(=O)C3COc4ccccc4O3)CC2)cc1C (stereo not drawn),,inactive: -23.8%
COc1ccccc1-c1noc(-c2ccc(N3CCN(C)CC3)c([N+](=O)[O-])c2)n1,"inconclusive [inhibitor, single point]",
Cc1ccc(C2CC(c3cccs3)=NN2C(=O)CSC2=NCCS2)cc1 (stereo not drawn),"inconclusive [inhibitor, single point]",
O=C(CN1C(=O)c2cccnc2Oc2ccc(Cl)cc21)NCCC1=CCCCC1,"inconclusive [inhibitor, single point]",
CCOP(=O)(OCC)c1nc(-c2cccc3ccccc23)oc1NCc1ccc(OC)cc1,"inconclusive [inhibitor, single point]",
COc1ccc(CNC(=O)c2noc(C)c2[N+](=O)[O-])cc1,"inconclusive [inhibitor, single point]",
CCCOc1ccc(CNC(=O)c2ccc3c(c2)N(Cc2ccccc2)CCS3)cc1,"inconclusive [inhibitor, single point]",
COc1ccc(/C=N/NC(=O)c2[nH]c(C)c(C(=O)N/N=C/c3ccc(OC)cc3)c2C)cc1,"inconclusive [inhibitor, single point]",
COc1ccc(NC(=O)c2c(NCc3cccs3)sc3c2CCCC3)c(OC)c1,active: 16.4 µM,
CC(C)(C)S(=O)N1Cc2cc(C(=O)O)nc(-c3cccc(-c4cc5ccccc5o4)c3)c2[C@H]1CCO (stereo partly drawn),,inactive: 11.1%
Cc1ccc2nc(NC(=S)NC(=O)c3cccs3)sc2c1,"inconclusive [inhibitor, single point]",
COc1ccc(-c2ccc(C(=O)NCc3ccco3)c3occc23)c(C)c1,"inconclusive [inhibitor, single point]",
Nc1nc2ncc(=O)[nH]c2c(=O)[nH]1,,inactive: -0.72%
CCCN1Cc2cccc(C(=O)NCCc3ccccc3)c2C1=O,"inconclusive [inhibitor, single point]",
CCOC(=O)c1c(C)c(C(=O)N2CCN(c3ccc(F)cc3)CC2)c(C)n1C,"inconclusive [inhibitor, single point]",
CCCCCc1c(-c2ccc(OC)c(OC)c2)ncn1CCc1ccccc1OC,active: 2.31 µM,
O=C(NC1CCCCCC1)c1cccs1,,inactive: -16.8%
O=C(N/N=C/c1c(O)ccc2ccccc12)C(=O)N1CCCC1,"inconclusive [inhibitor, full curve, poor fit]",
Cc1ccc(C(=O)Cc2ccccc2)cc1,,inactive: 9.12%
FC(F)(F)C(F)(F)C(F)(F)c1nc2nc(Cl)c(Cl)nc2[nH]1,"inconclusive [inhibitor, single point]",
CCOC(=O)c1c(C)[nH]c(C)c1C(=O)COC(=O)/C=C/c1ccc(Cl)cc1,"inconclusive [inhibitor, single point]",

Structure (SMILES),Potency,"activity change, negative = growth inhibition"
Cc1ccccc1NC(=S)c1ccc2ccccc2n1,"inconclusive [inhibitor, single point]",
Cc1noc(C)c1-c1ccc(C(=O)NCc2cccs2)c2occc12,"inconclusive [inhibitor, single point]",
CC1(C(=O)NS(=O)(=O)c2ccccc2)CCN1C(=O)Cc1cccc2ccccc12 (stereo not drawn),"inconclusive [inhibitor, single point]",
N#Cc1ccc(C(=O)Nc2nnc(-c3ccco3)o2)cc1,"inconclusive [inhibitor, single point]",
Cc1ccccc1CN1CC2=C(CCN(Cc3ccccc3)C2=O)N2CCN=C12,active: 0.58 µM,
Fc1cccc(CCN2CCN=C2Nc2ccccc2)c1,,inactive: 0.294%
Cn1c(=O)[nH]c(=O)c2c1nc(NC1CCCC1)n2Cc1ccccc1,"inconclusive [inhibitor, single point]",
CCC1(C2CCN(Cc3ccc(C)s3)CC2)NC(=O)N(CC2COc3ccccc3O2)C1=O (stereo not drawn),"inconclusive [inhibitor, single point]",
COc1ccc(-c2cc(=O)[nH]c(=S)[nH]2)cc1,"inconclusive [inhibitor, partial curve, poor fit]",
COC(=O)c1sc(NC(=O)CCCn2nc([N+](=O)[O-])cc2C)c(C(=O)OC)c1C,"inconclusive [inhibitor, single point]",
O=C1C2CCCCN2C(=O)N1CCCCN1CCN(c2ccc([N+](=O)[O-])cc2)CC1 (stereo not drawn),"inconclusive [inhibitor, single point]",
CCn1c(COc2cccc(C)c2)nnc1SCC(=O)Nc1cccc(C(=O)OC)c1,"inconclusive [inhibitor, partial curve]",
Cc1ccc(-n2c(SCC(=O)Nc3ccc4cn[nH]c4c3)nnc2-c2ccco2)cc1,"inconclusive [inhibitor, single point]",
Cc1noc(C)c1CSCC(=O)Nc1ccc(OC(F)F)c(Cl)c1,"inconclusive [inhibitor, single point]",
CNC(=O)c1ccccc1Nc1ccc(SC(F)F)cc1,"inconclusive [inhibitor, partial curve]",
OCCCn1c(C2CCCN2c2nc(-c3ccc(F)cc3)cs2)nc2cc(Cl)c(N3CCCCC3)cc21 (stereo not drawn),"inconclusive [inhibitor, single point]",
O=C(NN1C(=O)C2C3c4ccccc4C(c4ccccc43)C2C1=O)c1ccc(Cl)cc1 (stereo not drawn),,inactive: -13.7%
C=CCn1c(C)nnc1SCC(=O)c1[nH]c(C)c(C(C)=O)c1C,,inactive: -28.6%
Cc1ccc(NC(=O)c2oc3ccccc3c2C)nc1,"inconclusive [inhibitor, single point]",
Clc1ccccc1Cn1nc(-c2ccccc2)nc1-c1ccccc1,"inconclusive [inhibitor, single point]",
COc1cccc(N2[C@@H](CC(=O)O)c3ccc(/C=C/C(=O)O)cc3S2(=O)=O)c1,inactive,
O=C(CCS(=O)(=O)c1cccc2nonc12)N1CC(=O)N(CCc2ccccc2)C(=O)C1,"inconclusive [inhibitor, single point]",
COc1ccc(NC(=O)CSc2nc(O)cc(=O)[nH]2)c(OC)c1,"inconclusive [inhibitor, single point]",

Structure (SMILES),Potency,"activity change, negative = growth inhibition"
O=C(NNc1nc2cc3c(cc2s1)OCCO3)c1ccc(F)cc1,"inconclusive [inhibitor, single point]",
CC(NC(=O)CCC(=O)N1CCN(S(=O)(=O)c2ccc(Cl)cc2)CC1)c1ccccc1 (stereo not drawn),"inconclusive [inhibitor, single point]",
CN(CC(=O)Nc1ccc(F)cc1)C(=O)c1cc(-c2cccs2)nn1-c1ccccc1,"inconclusive [inhibitor, single point]",
Cc1ccc2c(c1)nnn2C1CCN(S(=O)(=O)c2ccc(C(=O)NC3CCCC3)cc2)CC1,"inconclusive [inhibitor, full curve, poor fit]",
O=C(c1ccc(Cl)cc1)N1CCC(c2nc3ccccc3o2)CC1,"inconclusive [inhibitor, single point]",
O=C(NCC(c1ccco1)N1CCc2ccccc21)c1c(F)cccc1F (stereo not drawn),"inconclusive [inhibitor, partial curve]",
CCCCNC(=O)C1CCN(C(=O)C2CCN(S(=O)(=O)c3ccc(C)cc3)CC2)CC1,,inactive: -21%
Cc1ccc(S(=O)(=O)Nc2ccc(S(=O)(=O)Nc3nccs3)cc2)c([N+](=O)[O-])c1,"inconclusive [inhibitor, single point]",
Cc1nnc2n1N=C(c1ccccc1)CS2,,inactive: 13.6%
CC1CN(C2=NC(=O)/C(=C3/C(=O)N(Cc4ccc(F)cc4)c4ccccc43)S2)CC(C)O1 (stereo not drawn),"inconclusive [inhibitor, single point]",
O=C(CSc1nnc(-c2cccnc2)n1-c1ccccc1)N1CCN(c2ccc(F)cc2)CC1,"inconclusive [inhibitor, single point]",
CCN(c1ccc(OCC(=O)OCC(=O)c2c(N)n(C)c(=O)n(C)c2=O)cc1)S(=O)(=O)c1ccccc1,,inconclusive: -3.78% [inhibitor]
Nc1ncc2c(n1)-c1cc(Cl)ccc1SC2,,inactive: -3.19%
CNC(=O)c1ccc(-c2ccccc2)s1,,inactive: -2.62%
Cc1cccc(C(O)c2ncc(-c3ccccc3)[nH]2)c1C (stereo not drawn),active: 18.4 µM,
COCCN(Cc1cc2cc3c(cc2nc1Cl)OCO3)C(=O)Nc1ccc(F)cc1,active: 16.4 µM,
Cc1ccc(NC(=O)C2CCCN(S(=O)(=O)c3cccnc3)C2)c(C)c1 (stereo not drawn),,inactive: 0.528%
Cc1ccc(CNC(=O)CN2C(=O)CSc3ccc(S(=O)(=O)N(C)C)cc32)cc1,"inconclusive [inhibitor, single point]",
O=C1C=C(O)c2c(O)cc(O)c(O)c2C1=O,"inconclusive [inhibitor, single point]",
CN(C(=O)c1cccc(NC(=O)Cc2ccc(NC(=O)C3CCN(C(=O)C4CC4)CC3)cc2)c1)C1CCCCC1,,inactive: -22%
CCn1cc(C(=O)OCC(=O)Nc2cc(OC)cc(OC)c2)c(=O)c2ccc(C)nc21,,inactive: -1.51%
CC(C(=O)N1CCN(c2ccc([N+](=O)[O-])cc2)CC1)N1C(=O)C2CC=CCC2C1=O (stereo not drawn),"inconclusive [inhibitor, partial curve]",
